The test system of the test is NCI-H322M lung. Nature of the test: NCI-60 cell line screen, 48 h.

Structures are written as SMILES. Several values for one entry are separate records, joined by “and”; a condition that tells them apart may be missing. Identical values can stand only once.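 Cells were grown in 96-well plates and exposed to each compound for 48 hours at five concentrations; endpoints were interpolated linearly between bracketing concentrations, or set to the highest concentration if not reached. GI50: concentration for 50% inhibition of growth. TGI denotes the concentration required for complete inhibition of growth.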 A value given as a limit tells only on which side of the number the result lay.

As to `CCN1C(=O)N(CC)C2C1NN=c1s/c(=C3\C(=O)N(C4CCCC4)c4ccccc43)c(=O)n12` (centres undefined), the GI50 is 2930 nM and the TGI is greater than 100 µM.

For the compound `COC(=O)c1c(O)ccc2c1c1c(n2Cc2ccccc2OC)C(=O)c2ccccc2C1=O`, the TGI worked out at 74.6 µM.

Compound `C=CCOCn1cc(F)c(=O)[nH]c1=O` yielded a TGI greater than 100 µM.

Compound `O=[N+]([O-])c1ccc2sc(/C=N/c3ccccn3)cc2c1` had a TGI greater than 100 µM.

`C=CCOCCC(CC=C)C(=O)CC(=O)OC` (centres undefined) came in with a TGI greater than 100 µM.

`Cc1ccc(S(=O)(=O)N/N=C2\CCCCCCCCCCC2CN(C)C)cc1` (centres undefined) registered a TGI of 48.1 µM.

For the compound `COc1ccc(O)cc1C(O)c1ccccc1` (centres undefined), the TGI is greater than 100 µM.

As for `Cn1cc(C2=C(c3cn(CCCN)c4ccccc34)C(=O)NC2=O)c2ccccc21`, the GI50 is 6110 nM and the TGI was greater than 19.3 µM.

With `COc1cc2cc3c4c(cc(OC)c(OC)c4c2cc1OC)CCN3C`, the TGI was greater than 50 µM.

For `CCOc1ccc(C(C[N+](=O)[O-])Sc2ccccc2N)cc1` (centres undefined), the GI50 was 14600 nM and the TGI came out at 27.7 µM.

Take `CCOC(=O)/C(C(=S)NCc1ccccc1)=C(/N)N1CCCC1`: the TGI is greater than 100 µM.

Consider `C1CSCCSCSCCS1`, for which the TGI is greater than 100 µM.

Turning to `COc1ccccc1[As]=[As]c1ccccc1OC` (centres undefined), the GI50 is 132 nM and the TGI was found to be 0.278 µM.

For the compound `CCCc1nc(Cl)c(Cl)c(Cl)n1`, the TGI was determined as 26.5 µM.

Take `CCN(CC)CCN1c2nc3ccccc3cc2Sc2cc3ccccc3nc21`: the GI50 is 3860 nM and the TGI turned out to be 15 µM.

As for `CC(=O)NNc1nc(C)c(C(=O)NNC(=O)C(=O)Nc2c([N+](=O)[O-])ccc(C)c2C)s1`, the TGI is greater than 100 µM.

The compound `N#C/C(=C1\OC(=N)C(c2ccccc2)C1=O)c1ccccc1` (centres undefined) returned a TGI greater than 100 µM.

`Cc1ccc(N=C2N=C(N3CC(C)OC(C)C3)c3ccccc32)cc1` (centres undefined) registered a TGI of 86.7 µM.

In turn, `O=[N+]([O-])c1cc(-[n+]2cc([O-])on2)ccc1Cl` yielded a TGI of 27.7 µM.

`CN(C)CCOc1cc2c(c3ccccc13)-c1ccccc1C2O` (centres undefined) showed a TGI of 25.7 µM.

`CNC(=O)c1c(F)cccc1Nc1nc(Nc2cc3c(cc2OC)CCN3C(=O)CN(C)C)nc2[nH]ccc12`: the GI50 is 6730 nM and the TGI was determined as 26.2 µM.

For `CC/C(Cl)=N\OC(=O)Nc1ccc(OC)c(C)c1`, the TGI was greater than 100 µM.

Regarding `Nc1cc2ncnn2c(SCC(=O)N/N=C/C(Br)=C\c2ccccc2)n1`, the TGI came to 89.4 µM.

Compound `O=C(CSCC(=O)N/N=C\c1ccc(O)c(O)c1O)N/N=C\c1ccc(O)c(O)c1O` returned a TGI of 41.7 µM.

In the case of `N#Cc1ccc(Oc2ccccc2)cc1C#N`, the TGI was greater than 100 µM.

Regarding `CS(=O)(=O)c1cccc(Nc2ncc3cc(-c4ccccc4Cl)ccc3n2)c1`, the GI50 was 2130 nM and the TGI was greater than 33.3 µM.

Regarding `CN(C)c1ccc(/C=N/c2nc3cc4sc(/N=C/c5ccc(N(C)C)cc5)nc4cc3s2)cc1`, the TGI is greater than 100 µM.

For `CCCCCCCCCCNCCSS(=O)(=O)O`, the GI50 was 2680 nM and the TGI is 6.48 µM.

As for `CSc1ccc(NC(=O)C2c3[nH]c4ccccc4c3C3CCC(C(C)(C)C)CC3C2C(=O)O)cc1` (centres undefined), the TGI is 64.8 µM.

With `C[N+](C)(C)c1cc[c]([Sn]([c]2ccc([N+](C)(C)C)cc2)([c]2ccc([N+](C)(C)C)cc2)[c]2ccc([N+](C)(C)C)cc2)cc1`, the GI50 is greater than 100000 nM and the TGI was greater than 100 µM.

In the case of `Cn1c(=O)cc2[nH]c3ccccc3n2c1=O`, the TGI was greater than 100 µM.

With `COc1ccc(N2C(=O)/C(=C\c3ccccc3)SC2c2cc(OC)c(OC)c(OC)c2)cc1` (centres undefined), the TGI was greater than 100 µM.

Compound `COc1cc(/C=C(\NC(=O)c2ccccc2)c2nc3ncncc3[nH]2)cc(OC)c1OC` gave a TGI greater than 100 µM.

Turning to `O=[N+]([O-])c1cc(N=Nc2c(O)ccc3cc(S(=O)(=O)O)ccc23)c(O)c([N+](=O)[O-])c1`, the TGI is greater than 100 µM.

`COc1cc2c3c(n(CCCNCCCNCCN)c(=O)c2cc1OC)-c1cc2c(cc1C3=O)OCO2`: the GI50 was 71400 nM and the TGI was greater than 100 µM.

With `CC(C)OC/N=C(/N)NC#N`, the TGI was greater than 100 µM.

`COc1ccc2c(O)c(/C=C3\N=Nc4ncccc43)oc2c1C[C@@H]1CCNC[C@H]1F`: the GI50 is 1940 nM and the TGI stood at 6.83 µM.

With `C#CC1(O)C(COP(=O)(O)OCC2OC(n3cc(F)c(=O)[nH]c3=O)CC2O)OC(n2ccc(N)nc2=O)C1O` (centres undefined), the GI50 is less than 10.9 nM.

For the compound `NS(=O)(=O)c1ccc(NC(=O)C2C(=O)C(=O)N(c3ccc(S(N)(=O)=O)cc3)C2=O)cc1` (centres undefined), the TGI was greater than 100 µM.

`CC(=O)c1ccccc1NC(=O)C(=O)C(C(=O)c1ccccc1-c1ccccc1)C1OC(=O)c2ccccc21` (centres undefined) showed a TGI of 79.5 µM.

Consider `CC(=O)/C(Br)=C/c1ccc(Br)o1`, for which the GI50 is 16900 nM and the TGI was 32.8 µM.

`CC(=O)C1C(=O)C(=O)N(c2ccc([N+](=O)[O-])cc2)C1=O` (centres undefined) returned a TGI greater than 100 µM.

Take `CCOC(=O)C1C(c2ccc(OC)cc2)c2c([nH][nH]c2=O)CC1(C)O` (centres undefined): the TGI was greater than 100 µM.

Compound `C(=C\C(Sc1ccccc1)c1ccccc1)/NNC1=NC(c2ccccc2)C(c2ccccc2)=NN1` (centres undefined) came in with a TGI greater than 100 µM.

`CN1C(=O)C(C(=O)Nc2ccccn2)C2C[C@@]1(C)Oc1ccccc12` (some centres undefined) came in with a TGI greater than 100 µM.

`COC(=O)c1cc(O)c(O)c(O)c1-c1c(O)c(O)c(O)c(SC[C@H](NC(=O)OCc2ccccc2)C(=O)OCc2ccccc2)c1C(=O)OC`: the TGI was 92.4 µM.

On to `O=C(N=c1nc(NC(=O)c2ccccc2)ss1)c1ccccc1`, for which the TGI is greater than 100 µM.

Take `Nc1nc(Cl)c2ncn(Cc3cccc(CCl)c3)c2n1`: the TGI was determined as 23.5 µM.

`C/C=C/C(=O)[O-].C/C=C/C(=O)[O-].N.N.N.N.[Co+3].[O-][Cl+3]([O-])([O-])[O-]`: the GI50 was greater than 100000 nM and the TGI is greater than 100 µM.

For `O=C(O)CCCNc1ncc2c(n1)-c1ccccc1OC2`, the TGI was greater than 100 µM.

`Cc1nc2cc3ccccc3cc2[nH]c1=O` came in with a TGI greater than 100 µM.

Consider `ClCC[N-]CC[N-]CCCl.ClCC[N-]CC[N-]CCCl.[O-][Cl+3]([O-])([O-])O.[Zn+2]`, for which the TGI was greater than 100 µM.

Take `Oc1[nH]c2ccccc2c1/C=c1/ccc2c(c1)N=C(c1ccc(C(F)(F)F)cc1)N=2`: the GI50 is 7060 nM and the TGI was found to be 20.3 µM.

On to `COc1cc(-c2nc3ccccc3o2)cc(CN2CCCCC2)c1O`, for which the GI50 is 13200 nM and the TGI was 40.9 µM.

`O=C1CCC2c3ccccc3NCN12` (centres undefined) yielded a TGI greater than 100 µM.

Regarding `CC1=NN2C(c3ccc([N+](=O)[O-])cc3)=CSC2=NC(C)(C)C1`, the TGI is greater than 100 µM.

`CCC1(CC)N=C(C(F)(F)F)c2cc(C(=O)C(F)(F)F)c3ccccc3c2N1`: the TGI is greater than 100 µM.

In turn, `CN(C)C(=S)C(Cl)(c1ccccc1)c1ccccc1` displayed a TGI greater than 100 µM.

For the compound `CN(C)Cc1ccc(NC(=O)c2cncc(C#Cc3cnc(N)c4ncccc34)c2)cc1F`, the GI50 is 2220 nM and the TGI came out at 4.57 µM.

For `CC1C=CC(C(N)C(=O)O)O1` (centres undefined), the TGI is greater than 100 µM.

Turning to `CC1=CP(=O)(c2ccccc2)C=C(C)C1=C(Cl)Cl` (centres undefined), the TGI was 18.6 µM.

As for `CC[C@H](C)[C@H](NC(=O)[C@H]1CCCCN1C)C(=O)N(C)[C@H](C[C@@H](OC(C)=O)c1cccc(C(=O)N[C@@H](Cc2ccccc2)C[C@H](C)C(=O)O)n1)C(C)C`, the GI50 was 4.86 nM and 2.5 nM; the TGI was greater than 25 µM.

With `CC(NC1=CC(=O)c2cccnc2C1=O)C(O)c1ccccc1` (centres undefined), the TGI stood at 7.21 µM.

Take `O=c1oc2ccccc2c(O)c1C(c1ccc(-c2ccccc2)cc1)c1c(O)c2ccccc2oc1=O`: the TGI is greater than 100 µM.

`CS(=O)(=O)OCCCSCCSCCCOS(C)(=O)=O` yielded a TGI greater than 100 µM.

`CS(=O)(=O)c1ccc2nc(-c3ccc(O)cc3)sc2c1` registered a TGI of 30.7 µM.

Consider `O=C(Nc1cc(Cl)cc(Cl)c1)c1cccc(NC2=C(Cl)C(=O)N(Cc3ccccc3)C2=O)c1`, for which the GI50 was 58300 nM and the TGI is greater than 100 µM.

Compound `COc1ccccc1/C=C\C(=O)C1COCN1` (centres undefined) had a TGI of 39.9 µM.

`COc1c(C(C)(C)C)cc(CC2C(=O)C=CC2=O)cc1C(C)(C)C` had a TGI of 42.8 µM.

As for `Nc1ncc(-c2ccc3ncnc(N4CCc5ccc(Cl)cc54)c3c2)cc1C(F)(F)F`, the GI50 was 1320 nM and the TGI is 14.9 µM.

Compound `CCC/C(Cl)=N/OC(NC(=O)OCC)(C(F)(F)F)C(F)(F)F` had a TGI greater than 100 µM.

Compound `CCS(=O)c1c2cc(OC)ccc2nc2ccc(OC)cc12` (centres undefined) registered a TGI of 34.2 µM.

Turning to `CCN(CC)c1ccc(-c2cc(-c3cc(OC)c(OC)c(OC)c3)nc(N3CCC(O)CC3)c2C#N)cc1`, the GI50 was 1110 nM and the TGI is greater than 81.3 µM.

For `COc1ccc(S(=O)(=O)Nc2c(/C=C\c3cc(OC)c(OC)c(OC)c3)ccc(OC)c2O)cc1`, the GI50 is 63.3 nM and the TGI is greater than 100 µM.

For `OCCCCn1cc(Cn2ncc3c(NCc4ccccc4)ncnc32)nn1`, the TGI is greater than 100 µM.

`CCOC(=O)OC1C(Br)C2CCC1(C)C2(C)C` (centres undefined) registered a TGI of 29.3 µM.

`COc1ccc(-c2cn(-c3ccc(OC)c(OC)c3)c(=O)[nH]2)cc1`: the GI50 is greater than 100000 nM and the TGI was greater than 100 µM.

Turning to `CO[C@@]12C[C@@H](C)[C@]34O[C@H]3C[C@]3(C)O[C@]43CC1=C(C)C(=O)O2`, the TGI was greater than 100 µM.

`COC1C=COC2(C)Oc3c(C)c(O)c4c(O)c(c(C5SCCS5)c(O)c4c3C2=O)NC(=O)/C(C)=C\C=CC(C)C(O)C(C)C(O)C(C)C(OC(C)=O)C1C` (centres undefined) returned a TGI of 36.6 µM.

`O=C(Nc1ccc(Cl)cc1)c1cc([N+](=O)[O-])ccc1O` had a TGI of 39.9 µM.

The compound `C=CCNC1=C2C[C@@H](C)C[C@H](OC)[C@H](O)[C@@H](C)/C=C(\C)[C@H](OC(N)=O)[C@@H](OC)/C=C\C=C(/C)C(=O)NC(=CC1=O)C2=O` had a TGI of 21 µM.

`C[P+](c1ccccc1)(c1ccc(Cl)cc1)c1ccc(Cl)cc1` gave a TGI of 63.9 µM.

For the compound `O=CC1C(Cl)=Nc2nc3ccccc3n2C1c1ccccc1` (centres undefined), the TGI is greater than 100 µM.

Compound `COc1ccc2c(c1)C(OC)C1c3c(cc4c(c3-2)OCO4)CCN1C` (centres undefined) registered a TGI greater than 87.2 µM.

Turning to `Nc1nc(N)c2ncn(CCOC(c3ccccc3)P(=O)(O)O)c2n1` (centres undefined), the TGI is greater than 100 µM.

As to `CCC(=O)N1C/C(=C/c2ccc(Br)cc2)C(=O)/C(=C/c2ccc(Br)cc2)C1`, the GI50 was 2600 nM and the TGI was found to be 8.11 µM.
